Values joined by “and” are separate entries in the source; they are usually repeats but may differ in a detail not shown here. Equal entries are not always repeated. Among all 360,000 compounds or so, about 25,000 (6.9%) were called active. Inconclusive results, whose numbers are uncertain, are shown with a selection of clear calls. Calls follow the shape of the dose curve; as a rule, active = well fitted inhibition curve with a large enough effect; inconclusive = small, poorly fitted or top-dose-only effect; inactive = flat fitted curve, though single readings scatter. A potency beside an inconclusive call is a rough fit, not a confirmed value. The source holds several records for some structures; these can differ, active in one and inactive in another.
What follows are molecules tested against Luciferin 4-monooxygenase (Photinus pyralis) (UniProt P08659) (assay: qHTS profiling assay for firefly luciferase inhibitor/activator using purifed enzyme and Km concentrations of substrates (counterscreen for miR-21 project)). Settings: purified FLuc, luminescence inhibition; activity change, negative = inhibition: at 57.5 µM (top of the series).
Summary of the method: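 Purified P. pyralis luciferase (10nM final) with 10uM D-luciferin and 10uM ATP (Km levels) in 50mM Tris acetate pH 7.5, 10mM Mg acetate, 0.01% Tween-20, 0.05% BSA; qHTS 6-point titration, ~60 µM downward; luminescence read.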
Also: nearly all actives have a fitted effect of over 55% in size.
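For activity change, negative = inhibition in this document: plate controls were vehicle for no effect and reference inhibitor for full effect.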
Potency is read from the fitted curve at half-maximal effect; tags tell the direction and shape of the fitted curve.

Sequence of UniProt P08659 (P08659 whole entry, looked up): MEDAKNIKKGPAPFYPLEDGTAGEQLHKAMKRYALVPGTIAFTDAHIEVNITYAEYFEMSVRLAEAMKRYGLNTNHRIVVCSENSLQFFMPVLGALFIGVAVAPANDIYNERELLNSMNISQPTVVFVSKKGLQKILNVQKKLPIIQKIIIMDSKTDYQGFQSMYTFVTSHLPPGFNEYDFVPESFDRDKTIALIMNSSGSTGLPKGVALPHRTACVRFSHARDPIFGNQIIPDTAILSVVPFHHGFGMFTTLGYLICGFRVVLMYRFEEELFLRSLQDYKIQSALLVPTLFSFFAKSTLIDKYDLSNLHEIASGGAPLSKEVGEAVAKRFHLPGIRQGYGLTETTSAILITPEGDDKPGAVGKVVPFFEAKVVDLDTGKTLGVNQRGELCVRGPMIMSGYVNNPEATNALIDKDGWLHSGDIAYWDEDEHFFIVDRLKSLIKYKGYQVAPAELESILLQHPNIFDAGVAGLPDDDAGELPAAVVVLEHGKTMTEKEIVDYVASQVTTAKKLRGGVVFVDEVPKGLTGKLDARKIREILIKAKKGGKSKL

| SMILES | Potency | activity change, negative = inhibition |
| --- | --- | --- |
| COc1cccc(/C=C2\SC(=O)N(CC(=O)NC3CCS(=O)(=O)C3)C2=O)c1 (stereo unspecified) | active: 16.9 µM | – |
| COc1ccc(OC)c(CCNC(=O)CCC(=O)N2CCOc3ccc(C)cc32)c1 | – | inactive: 0.198% |
| COc1ccccc1NC(=O)Nc1ccccc1Br | inconclusive: 16.9 µM [inhibitor, partial curve] | – |
| O=C(Nc1nnc(S(=O)(=O)Nc2ccccc2)s1)C1CCCCC1 | inactive and active: 8.49 µM | – |
| CCCCCCC(=O)Nc1ccc(Br)cn1 | inconclusive: 12 µM [inhibitor, partial curve] | – |
| C#CCN1C(=O)C(O)(CC(=O)c2ccc3c(c2)OCCO3)c2ccccc21 (stereo unspecified) | inconclusive: 37.9 µM [inhibitor, single point] | – |
| COc1ccc(NCC(=O)N/N=C/c2c(C)nn(Cc3ccccc3)c2Cl)cc1 | inconclusive: 19 µM [inhibitor, partial curve, poor fit] | – |
| CCN(CCNC(=O)C1CCN(Cc2nc(-c3cccc(Cl)c3)oc2C)CC1)c1ccccc1 | inconclusive: 33.8 µM [inhibitor, single point] | – |
| CCSS(=O)(=O)c1cccc2cccnc12 | inconclusive: 13.5 µM [inhibitor, partial curve] | – |
| O=C(CSc1ncccc1-c1nc2ccccc2[nH]1)N1CCCCC1 | active: 16.9 µM | – |
| O=C(O)COc1ccc(NC(=O)c2ccco2)cc1 | inconclusive: 26.9 µM [inhibitor, partial curve, poor fit] | – |
| CCN(CC(=O)Nc1ccc(NC(C)=O)cc1)C(=O)c1ccc2c(c1)S(=O)(=O)N=C1CCCCCN12 | active: 10.7 µM | – |
| C(=N\Nc1ncnc2ccccc12)/c1ccccc1 | active: 3.01 µM | – |
| Cc1cccc(OCc2n[nH]c(=S)o2)c1C | inconclusive: 37.9 µM [inhibitor, single point] | – |
| COc1c([N+](=O)[O-])c(=O)oc2ccccc12 | inconclusive: 30.1 µM [inhibitor, partial curve, poor fit] | – |
| O=S1(=O)CC/C(=N\Nc2ccc(F)cc2)c2ccsc21 | inconclusive: 26.9 µM [inhibitor, partial curve, poor fit] | – |
| COc1ccc(C(=O)Cn2nnc(-c3ccc(N4CCOCC4)cc3)n2)cc1OC | active: 8.49 µM | – |
| Cc1cc(C)cc(NC(=O)Nc2ccc(N3CCCCC3)cc2)c1 | active: 2.69 µM | – |
| Cc1cccc(C(=O)Nc2cc(NC(=O)c3cccs3)ccc2C)c1 | inconclusive: 30.1 µM [inhibitor, single point] | – |
| COc1cccc(-c2cn(C[C@H]3CC[C@@H]([C@@H]4CC[C@H](Cn5cc(-c6cccc(OC)c6)nn5)O4)O3)nn2)c1 | inconclusive: 19 µM [inhibitor, partial curve] | – |
| Cc1ccc(C(=O)CSc2nc(C(C)C)nc3ccccc23)cc1 | inconclusive: 37.9 µM [inhibitor, partial curve, poor fit] | – |
| CC(C)n1ncc2c(C(=O)Nc3cccc(S(=O)(=O)N(C)C)c3)cc(C3CC3)nc21 | – | inactive: 0.013% |
| COCCCNC(=O)C1CCN(Cc2cc3ccccc3n2Cc2cccc(C)c2)CC1 | – | inactive: -5.95% |
| O=S1(=O)CCC(NC(=S)Nc2ccc3ccccc3c2)C1 (stereo unspecified) | inconclusive: 30.1 µM [inhibitor, partial curve, poor fit] | – |

| SMILES | Potency | activity change, negative = inhibition |
| --- | --- | --- |
| O=C1/C(=C/c2cccc(Br)c2)SC(=S)N1CCC(=O)N(CCO)c1ccccc1 | inconclusive: 23.9 µM [inhibitor, single point] | – |
| COc1ccc2cc(-c3ccn[nH]3)ccc2c1 | active: 1.35 µM | – |
| Cc1cc(C(=O)O/N=C(\N)c2ccncc2)ccc1[N+](=O)[O-] | active: 16.9 µM | – |
| COc1ccc(CNC(=O)CCS(=O)(=O)c2ccc(Br)cc2)cc1 | inconclusive: 26.9 µM [inhibitor, partial curve, poor fit] | – |
| Cc1cccc(OCC(=O)Nc2cccc(C(=O)NCC(C)C)c2)c1 | inconclusive: 26.9 µM [inhibitor, single point] | – |
| CC(=O)c1ccc(OCc2cc(C(=O)N3CCCCC3c3cccnc3)no2)cc1 (stereo unspecified) | active: 26.9 µM | – |
| Cc1nn(-c2ccccc2)c(C)c1/C=N/NC(=O)CSc1nc2ccccc2c(=O)n1-c1ccccc1 | – | inactive: 0.0642% |
| COc1ccc(NC(=O)N2CCn3c2nc2ccccc23)cc1 | inconclusive: 37.9 µM [inhibitor, partial curve, poor fit] | – |
| CC1SCC(NC(=O)c2ccccc2Cl)CS1 (stereo unspecified) | active: 16.9 µM | – |
| S=C(NCC1CCCO1)c1ccc(Br)cc1 (stereo unspecified) | inconclusive: 30.1 µM [inhibitor, single point] | – |
| Oc1ccc(/C=N/Nc2nc(-c3ccc(Cl)cc3)cc(C(F)(F)F)n2)cc1 | active: 26.9 µM | – |
| Cc1ccc(C(=O)Cn2nnc3ccccc32)cc1[N+](=O)[O-] | inconclusive: 37.9 µM [inhibitor, partial curve, poor fit] | – |
| COCC(=O)Nc1nnc(-c2cccs2)s1 | inconclusive: 30.1 µM [inhibitor, partial curve, poor fit] | – |
| COc1ccc([C@H]2CC(=O)C=C(c3ccc4c(c3)OCCO4)C2)cc1 | inconclusive: 17.8 µM [inhibitor, single point] | – |
| COc1ccc(/C=N/NC(=S)Nc2cccc(C(=O)O)c2)cc1OC | active: 5.36 µM | – |
| Cc1ccc2nc(SCCC(=O)O)cc(C)c2c1 | inconclusive: 23.9 µM [inhibitor, single point] | – |
| Cc1ccccc1Cn1c(-c2cncs2)nc2ccccc21 | inconclusive: 37.9 µM [inhibitor, partial curve, poor fit] | – |
| CN(Cc1cccs1)C(=O)CCc1ccc(S(=O)(=O)N2CCOCC2)cc1 | – | inactive: 2.53% |
| Cc1ccc(C)c(NC(c2ccccc2)c2nnc(-c3ccccc3F)o2)c1 (stereo unspecified) | active: 15.1 µM | – |
| O=[N+]([O-])c1cc(/C=N\Nc2ccccn2)ccc1Cl | inconclusive: 5.36 µM [inhibitor, partial curve, poor fit] | – |
| Clc1ccc(CCNc2nc3cc(Cl)c(Cl)cc3n3cnnc23)cc1 | – | inactive: 1.3% |
| O=C(CCCc1ccccc1)NC12CC3CC(CC(C3)C1)C2 | active: 9.53 µM | – |
| Cc1cccc(OCC(=O)N2CCc3ccccc3C2)c1 | inconclusive: 21.3 µM [inhibitor, partial curve, poor fit] | – |
| Cc1ccc(CNC(=O)Nc2ccccc2)cc1 | active: 12 µM | – |

| SMILES | Potency | activity change, negative = inhibition |
| --- | --- | --- |
| CCN(CC)C(=O)Cn1cc(C(=O)C(=O)NCC2COc3ccccc3O2)c2ccccc21 (stereo unspecified) | inconclusive: 37.9 µM [inhibitor, single point] | – |
| Cn1c(SCC(=O)N2CCCC2)nc2ccccc2c1=O | – | inactive: 0.388% |
| CCn1c(COc2ccc(Cl)cc2Cl)nc2ccccc21 | inconclusive: 1.69 µM [inhibitor, partial curve, poor fit] | – |
| Cc1c(N2C(=O)/C(=C\c3cccc4ccccc34)SC2=S)c(=O)n(-c2ccccc2)n1C | inconclusive: 23.9 µM [inhibitor, partial curve, poor fit] | – |
| O=C(COC(=O)C1CCC1)NCc1ccccc1Cl | active: 23.9 µM | – |
| COc1cccc(CN(C)Cc2cc(=O)oc3c(C)c(C)ccc23)c1 | inconclusive: 26.9 µM [inhibitor, partial curve] | – |
| C(=N\Nc1nc(Nc2ccccc2)nc(N2CCCCC2)n1)/c1ccco1 | active: 6.01 µM | – |
| O=C(CSCc1ccccc1)Nc1cccc(C(=O)Nc2ccccc2C(=O)O)c1 | inconclusive: 37.9 µM [inhibitor, single point] | – |
| COc1ccc(-c2cc(C(=O)N3CCN(c4ccc(F)cc4)CC3)no2)cc1 | inconclusive: 12 µM [inhibitor, partial curve, poor fit] | – |
| CCCCc1ccc(CC(=O)O)cc1 | – | inactive: -5.65% |
| CN(CC(=O)Nc1n[nH]c(=S)s1)S(=O)(=O)c1cccc2cccnc12 | inconclusive: 21.3 µM [inhibitor, partial curve, poor fit] | – |
| Cc1ccc(-n2ncc3c(N4CCCCCC4)ncnc32)cc1Cl | active: 0.426 µM | – |
| NC1=NN=C(N2N=C(c3ccccc3)CC2(O)C(F)(F)F)n2ncnc2C1 (stereo unspecified) | inconclusive: 0.0085 µM [inhibitor, partial curve, poor fit] | – |
| COc1cc(S(=O)(=O)NC2CCCCC2C)ccc1F (stereo unspecified) | – | inactive: -0.874% |
| Cc1ccc2oc(C(=O)N(C)CCC(O)c3ccccc3)c(C)c2c1 (stereo unspecified) | inconclusive: 21.3 µM [inhibitor, partial curve, poor fit] | – |
| CCCCOc1ccc(C(C)NC(=O)CN2C(=O)CSc3ccc(S(=O)(=O)N4CCOCC4)cc32)cc1 (stereo unspecified) | – | inactive: -14.6% |
| COc1cccc(-c2cc(C(F)(F)F)nc(NCCc3ccc(OC)c(OC)c3)n2)c1 | – | inactive: 0.255% |
| CSCCC(NC(=O)c1ccc(Cl)cc1)C(=O)OCC(=O)c1ccc[nH]1 (stereo unspecified) | inconclusive: 37.9 µM [inhibitor, single point] | – |
| CCOC(=O)c1cc(S(=O)(=O)NCc2ccc(Cl)cc2)[nH]n1 | inconclusive: 9.53 µM [inhibitor, partial curve] | – |
| Cn1c(SCC(=O)c2ccccc2)nnc1-c1ccc(O)cc1 | inconclusive: 19 µM [inhibitor, partial curve, poor fit] | – |
| O=C(NCc1ccc2c(c1)OCO2)c1sccc1Br | inconclusive: 23.9 µM [inhibitor, partial curve, poor fit] | – |
| CCOC(=O)c1ccc(N=Cc2nc3ccccc3n2C)cc1 | inconclusive: 37.9 µM [inhibitor, single point] | – |
| CCOC(=O)c1c(NC(=O)COC(=O)Cc2ccccc2[N+](=O)[O-])sc(C(=O)N(C)C)c1C | – | inactive: -4.26% |

Reference: PubChem BioAssay AID588342 (National Center for Advancing Translational Sciences (NCATS), 2011)
